Reference: PubChem BioAssay AID1030 (National Center for Advancing Translational Sciences (NCATS), 2008)
Several values for one entry are separate records, joined by “and”; a condition that tells them apart may be missing. Identical values can stand only once. Screen size: about 220,000 compounds; about 16,000 (7.3%) were called active. The shares of active, inactive and inconclusive entries below differ from those in the screen. The call rests on the fitted dose curve; in most records, active means well fitted inhibition curve with a large enough effect (not every such curve was filed as active); inconclusive means small, poorly fitted or top-dose-only effect, or another doubt; inactive means no such curve, though single readings can be large or run the other way. Potencies of inconclusive entries are doubtful fits and often do not repeat. Where a structure was tested more than once in an assay, its records may differ in their call.

Target: Aldehyde dehydrogenase 1A1 (Homo sapiens) (UniProt P00352)
Sequence of UniProt P00352 (P00352 whole entry, looked up): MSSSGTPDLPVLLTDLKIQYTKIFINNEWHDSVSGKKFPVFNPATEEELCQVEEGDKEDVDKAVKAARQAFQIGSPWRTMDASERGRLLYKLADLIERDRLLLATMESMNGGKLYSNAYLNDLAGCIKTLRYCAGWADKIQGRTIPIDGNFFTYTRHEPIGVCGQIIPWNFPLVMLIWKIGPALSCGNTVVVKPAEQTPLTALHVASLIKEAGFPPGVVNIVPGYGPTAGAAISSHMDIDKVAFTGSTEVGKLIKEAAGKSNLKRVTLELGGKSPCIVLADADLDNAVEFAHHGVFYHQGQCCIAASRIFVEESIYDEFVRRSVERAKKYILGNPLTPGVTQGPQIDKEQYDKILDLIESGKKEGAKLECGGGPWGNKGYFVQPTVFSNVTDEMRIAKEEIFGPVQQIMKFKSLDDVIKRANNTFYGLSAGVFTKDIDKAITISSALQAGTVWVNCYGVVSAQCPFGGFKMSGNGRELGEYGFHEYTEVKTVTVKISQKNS
Assay: qHTS Assay for Inhibitors of Aldehyde Dehydrogenase 1 (ALDH1A1);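 on activity, negative = inhibition: plate controls were no enzyme wells and a reference inhibitor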
Details: Purified ALDH1A1, NADH fluorescence, propionaldehyde substrate; series mostly up to 75.3 µM; activity, negative = inhibition: at the top concentration
Potency means the concentration at half of the fitted maximal effect; tags describe the fitted curve by direction and shape.

| Structure (SMILES) | Potency | activity, negative = inhibition |
| --- | --- | --- |
| Cn1c(=O)cc(SCC(=O)N2CCC3(CC2)OCCO3)c2ccc(Cl)cc21 | inconclusive: 39.8 µM [inhibitor, single point] |  |
| O=C(CNC(=O)c1ccccc1Cl)Nc1ccc(Br)cc1C(=O)c1ccccc1 |  | inactive: -5.05% |
| Cc1ccc(-n2c(O)c(C=NC3CCCC3)c(=O)[nH]c2=O)c(C)c1 |  | inactive: -1.87% |
| COc1cc2c(cc1OC)CC[N+](C)=C2 | inconclusive: 25.1 µM [inhibitor, partial curve] |  |
| COc1cc2cc(c1Cl)N(C)C(=O)C[C@H](OC(=O)C(C)C)[C@]1(C)O[C@@H]1[C@@H](C)[C@H]1C[C@](O)(NC(=O)O1)[C@@H](OC)/C=C\C=C(\C)C2 |  | inactive: 0.149% [at 13.5 µM] |
| O=C1NC(=O)C2(Cc3ccccc3N3CCCC32)C(=O)N1Cc1ccccc1 (stereo not drawn) | inconclusive: 35.5 µM [inhibitor, single point] |  |
| Nc1nonc1C(=O)N/N=C/c1ccc([N+](=O)[O-])o1 | active: 12.6 µM |  |
| Nc1nc(N)c(N=Nc2ccc([As](=O)(O)O)cc2)c(=O)[nH]1 |  | inactive: 1.61% [at 13.5 µM] |
| CC(=O)c1ccc2c(c1)C1C(Cl)C(Sc3ccccc3[N+](=O)[O-])CC1C(c1ccccc1)N2 (stereo not drawn) | active: 7.94 µM |  |
| CCc1ccc(CN2CCN(C(=O)Cc3ccccc3)CC2)cc1 | inconclusive: 22.4 µM [inhibitor, single point] |  |
| COc1cccc(-n2nc(C(=O)N3CCC4(CC3)OCCO4)c3ccccc3c2=O)c1 | inconclusive: 20 µM [inhibitor, partial curve] |  |
| O=P(/C(=N/O)N1CCCCC1)(N1CCOCC1)N1CCOCC1 |  | inactive: 1.66% |
| O=c1c2ccccc2nc(/C=C/c2ccc3c(c2)OCO3)n1-c1ccccc1 | inconclusive: 14.1 µM [inhibitor, partial curve] |  |
| O=C1NC(=O)C(=Cc2ccc(N3CCOCC3)cc2)C(=O)N1 | inconclusive: 20 µM [inhibitor, partial curve] |  |
| Cc1nc2c(c(C)nn2-c2ccccc2)c(C)c1CCC(=O)N1CCC2(CC1)OCCO2 | inconclusive: 28.2 µM [inhibitor, partial curve] |  |
| Cn1c(O)c(/C=N/NC(=O)c2ccncc2)c(=O)[nH]c1=S | inconclusive: 39.8 µM [inhibitor, single point] |  |
| CC(=O)[C@@]1(O)CC[C@H]2[C@@H]3CC=C4C[C@@H](O)CC[C@]4(C)[C@H]3CC[C@@]21C |  | inactive: 6.39% |
| CCC(=NCCN1CCCCC1)c1c(O)n(C)c(=O)n(C)c1=O | inconclusive: 39.8 µM [inhibitor, single point] |  |
| O=C(CNC(=O)c1cccs1)NCC(=O)OCC(=O)c1ccc([N+](=O)[O-])cc1 | active: 2.24 µM |  |
| COc1cc2ccc(=O)oc2c2ccoc12 | inconclusive: 28.2 µM [inhibitor, single point] and inconclusive: 31.6 µM [inhibitor, partial curve] |  |
| NC1(P(=O)(O)O)CCCCC1 |  | inactive: 3.69% [at 13.5 µM] |
| CN(C(=O)Oc1ccc(C(=O)c2ccc(Cl)cc2)cc1)c1ccccc1 |  | inactive: 4.63% |
| CCS(=O)(=O)N1Cc2ccccc2CC1C(=O)NCC12CC3CC(CC(C3)C1)C2 (stereo not drawn) | inconclusive: 39.8 µM [inhibitor, single point] |  |

| Structure (SMILES) | Potency | activity, negative = inhibition |
| --- | --- | --- |
| Fc1ccc(C(OCCN2CCN(C/C=C/c3ccccc3)CC2)c2ccc(F)cc2)cc1 |  | inactive: -14.3% |
| CCOC(=O)[C@]1(C#N)[C@@H]2C=CC(C(C)=O)=CN2[C@@H](C(N)=O)[C@@H]1c1ccsc1 | inconclusive: 12.6 µM [inhibitor, partial curve] |  |
| CC(C)Oc1cccnc1N(C)C1CCN(Cc2ccccc2)CC1 | inconclusive: 31.6 µM [inhibitor, partial curve] |  |
| N#CCCn1cc(C(=O)NCc2ccccc2)c(-c2ccc3c(c2)OCCO3)n1 | inconclusive: 11.2 µM [inhibitor, partial curve] |  |
| Clc1nc(Cl)nc(Cl)n1 | active: 2.24 µM |  |
| CCC(=O)c1cn(Cc2ccccc2)c2ccccc12 |  | inactive: -7.09% |
| COc1cc(/C=N/NP(=S)(c2ccccc2)c2ccccc2)ccc1O | inconclusive: 39.8 µM [inhibitor, single point] |  |
| O=C(Nc1ccc(COc2ccccc2)cc1)Oc1ccccc1N1CCOCC1 | inconclusive: 3.55 µM [inhibitor, partial curve, poor fit] |  |
| O=C(Nc1cccnc1)c1c(O)c2c(n(Cc3ccccc3)c1=O)CCCC2 | inconclusive: 39.8 µM [inhibitor, single point] |  |
| C[C@@H]1O[C@H](C[N+](C)(C)C)CS1 |  | inactive: -5.39% |
| O=C(COc1ccc(S(=O)(=O)N2CCCCC2)cc1)N1CCN(Cc2ccccc2)CC1 | inconclusive: 20 µM [inhibitor, single point] |  |
| C[C@H](NC(=O)[C@@H](N)Cc1ccc(O)cc1)C(=O)NCC(=O)N(C)[C@@H](Cc1ccccc1)C(=O)NCCO |  | inactive: -1.13% |
| O=c1c2cc(Br)ccc2[nH]c(=S)n1-c1ccccc1 | inconclusive: 0.631 µM [inhibitor, full curve] |  |
| O=C(CNC(=O)c1ccc(Cl)cc1)OCC(=O)c1ccc2c(c1)OCCO2 | inconclusive: 39.8 µM [inhibitor, single point] |  |
| ClCC(Cl)CCl |  | inactive: 14.1% |
| O=C(CCCN1CCC2(CC1)C(=O)NCN2c1ccccc1)c1ccc(F)cc1 | inactive |  |
| CC(=NCCC(c1ccccc1)c1ccccc1)c1c(O)n(C)c(=O)n(C)c1=O | inconclusive: 39.8 µM [inhibitor, single point] |  |
| C=CCN1CCC23c4c5ccc(O)c4OC2/C(=N/N=C2\CCC4(O)C6Cc7ccc(O)c8c7C4(CCN6CC=C)C2O8)CCC3(O)C1C5 (stereo not drawn) |  | inactive: -6.33% |
| Cc1cc(C)nc(-n2c(C)nc3cc(Cl)ccc3c2=O)c1 |  | inactive: 3.81% |
| C1C[C@@H]2CN(CCCN3CCOCC3)[C@@H](C1)O2 |  | inactive: 11.4% [at 13.5 µM] |
| O=C1C[C@@H]2OCC=C3CN4CC[C@]56c7ccccc7N1[C@@H]5[C@@H]2[C@H]3C[C@H]46 (tested in a mixture with another compound) |  | inactive: -6.52% [at 13.5 µM] |
| O=C(O)[C@@H]1[C@H](C(=O)O)[C@]2(Cl)C(Cl)=C(Cl)[C@@]1(Cl)C2(Cl)Cl | active: 3.16 µM |  |
| N#CSCSC#N | active: 0.112 µM |  |

| Structure (SMILES) | Potency | activity, negative = inhibition |
| --- | --- | --- |
| C=C(C)c1ccccc1 |  | inactive: 6.99% |
| CCC(=NCc1cccnc1)c1c(O)n(C2CCCCC2)c(=O)[nH]c1=O | inconclusive: 20 µM [inhibitor, partial curve] |  |
| Nc1ccc(Cl)cc1N | active: 8.91 µM |  |
| CC[C@H]1CN2CC[C@@H]1C[C@H]2[C@@H](O)c1ccnc2ccc(OC)cc12 | inconclusive: 17.8 µM [inhibitor, single point] |  |
| O=C(c1cccc(N2CCCC2=O)c1)N1CCC2(CC1)OCCO2 | inconclusive: 39.8 µM [inhibitor, single point] |  |
| CN(C(=O)Cc1ccc(Cl)c(Cl)c1)[C@H](CN1CCCC1)c1cccc(N=C=S)c1 | inconclusive: 39.8 µM [inhibitor, single point] |  |
| CN(C)CCNC(=O)c1cccn(Cc2cc(C(F)(F)F)cc(C(F)(F)F)c2)c1=O | inconclusive: 31.6 µM [inhibitor, single point] |  |
| C[C@@H]1CC[C@@H]2N(C1)C[C@H]1[C@@](O)([C@H](O)C[C@]3(O)[C@H]4CC[C@H]5[C@]6(O)O[C@]4(C[C@]13O)[C@@]5(C)CC[C@@H]6O)[C@@]2(C)O |  | inactive: 12.7% [at 13.5 µM] |
| O=C(c1cc(-c2ccccc2)nc2ccccc12)N1CCC2(CC1)OCCO2 | inconclusive: 25.1 µM [inhibitor, partial curve] |  |
| COC[C@H]1OC(=O)c2coc3c2[C@@]1(C)C1=C(C3=O)C2CCC(=O)[C@@]2(C)C[C@H]1OC(C)=O (stereo partly drawn) | active: 28.2 µM |  |
| O=C1/C(=C/c2ccc([N+](=O)[O-])cc2)N2CCC1CC2 | inconclusive: 25.1 µM [inhibitor, single point] |  |
| CN1C[C@H](CNC(=O)OCc2ccccc2)C[C@@H]2c3cccc4c3c(cn4C)C[C@H]21 | inconclusive: 35.5 µM [inhibitor, single point] |  |
| CC(C)(O)C1O[C@H]2CC[C@@]3(C)[C@@](O)(CC[C@H]4Cc5c([nH]c6ccccc56)[C@@]43C)C2=CC1=O (stereo partly drawn) | inactive |  |
| C=CC(=O)OCC(CO)(COC(=O)C=C)COC(=O)C=C | active: 0.398 µM |  |
| Cc1c(C(=O)N2CCC3(CC2)OCCO3)sc2ncnc(N3CCc4ccccc4C3)c12 | inconclusive: 39.8 µM [inhibitor, single point] |  |
| CCCCn1c(N)c(C(=O)NCCN2CCOCC2)c2nc3ccccc3nc21 | inconclusive: 28.2 µM [inhibitor, partial curve] |  |
| CS(=O)c1ccc(-c2nc(-c3ccc(F)cc3)c(-c3ccncc3)[nH]2)cc1 (stereo not drawn) | inconclusive: 28.2 µM [inhibitor, partial curve] and inconclusive: 35.5 µM [inhibitor, single point] |  |
| N#CC(C#N)=Cc1cc(O)c(O)c(O)c1 | active: 28.2 µM |  |
| Cn1c(O)c(/C=N/c2ncccn2)c(=O)n(C)c1=O | inconclusive: 8.91 µM [inhibitor, partial curve, poor fit] |  |
| O=c1c2ccccc2nc(Cc2ccccc2)n1-c1ccccc1O | inconclusive: 12.6 µM [inhibitor, partial curve] |  |
| Cc1ccc2cc(C=C(C#N)C#N)c(Cl)nc2c1 |  | inactive: -79.3% |
| O=c1[nH]c(=O)n(CCc2ccccc2)c(O)c1C=NCCCn1ccnc1 |  | inactive: 8.03% |
